Test results published in PubChem BioAssay AID1460 (National Center for Advancing Translational Sciences (NCATS), 2008).
The campaign covered roughly 270,000 compounds. About 5,800 (2.1%) were called active. Inconclusive means that the source gave no clear call. Such entries were picked first, then a sample of the others. Calls come from the whole dose curve; as a rule, active = well fitted inhibition curve with a large enough effect; inconclusive = small, poorly fitted or top-dose-only effect; inactive = flat fitted curve, though single readings scatter. Potencies beside an inconclusive call are fits to weak or partial responses and may not hold up.

Molecular target: Microtubule-associated protein tau (Homo sapiens) (UniProt P10636)
UniProt P10636, sequence (P10636 whole entry, looked up): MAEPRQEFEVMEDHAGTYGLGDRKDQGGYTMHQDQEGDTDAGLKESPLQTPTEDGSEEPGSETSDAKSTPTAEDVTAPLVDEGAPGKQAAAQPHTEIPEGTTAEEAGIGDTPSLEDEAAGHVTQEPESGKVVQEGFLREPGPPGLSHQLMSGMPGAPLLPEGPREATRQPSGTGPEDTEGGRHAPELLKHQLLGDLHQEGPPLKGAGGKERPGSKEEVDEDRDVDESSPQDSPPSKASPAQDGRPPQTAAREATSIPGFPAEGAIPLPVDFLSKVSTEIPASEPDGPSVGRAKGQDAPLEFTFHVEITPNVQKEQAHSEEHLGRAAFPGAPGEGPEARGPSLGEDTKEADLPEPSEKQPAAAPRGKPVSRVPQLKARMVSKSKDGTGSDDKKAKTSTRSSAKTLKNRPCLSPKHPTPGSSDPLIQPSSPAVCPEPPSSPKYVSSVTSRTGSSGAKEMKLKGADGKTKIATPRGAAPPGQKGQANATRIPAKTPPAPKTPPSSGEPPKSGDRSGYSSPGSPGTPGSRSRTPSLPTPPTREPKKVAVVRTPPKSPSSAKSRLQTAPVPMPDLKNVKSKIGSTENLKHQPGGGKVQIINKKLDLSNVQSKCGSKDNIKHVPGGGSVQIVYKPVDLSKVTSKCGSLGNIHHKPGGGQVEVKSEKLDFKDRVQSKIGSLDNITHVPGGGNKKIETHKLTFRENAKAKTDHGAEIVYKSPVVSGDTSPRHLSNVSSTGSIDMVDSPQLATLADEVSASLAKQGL
Experiment: qHTS for Inhibitors of Tau Fibril Formation, Thioflavin T Binding; note: nearly all actives have a fitted effect of over 55% in size
Details: recombinant tau K18 P301L (four-repeat tau fragment), heparin-induced fibrillization, ThT fluorescence; series mostly up to 57.4 µM
Method in brief: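 Heparin-induced (20 uM) aggregation of recombinant human K18 P301L tau, 15 uM unlabeled with 0.24 uM labeled, pH 7 acetate buffer, 6 hr at 37 C with compound. Fibrils quantified by 30 uM ThT fluorescence after 1 hr ambient incubation.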
Potency is the fitted concentration of half-maximal effect; tags give direction and shape of the fitted curve.

SMILES	Potency
CN(C)/N=C/c1ccc(OC(=O)c2cccc([N+](=O)[O-])c2)cc1	inconclusive: 31.6 µM [inhibitor, partial curve]
O=[N+]([O-])c1cccc(-c2noc(-c3ccco3)n2)c1	inconclusive: 25.1 µM [inhibitor, single point]
Cc1ccc2nc(SCC(=O)NCC3CCCO3)c(C#N)cc2c1 (stereo unspecified)	inactive
COC/C=C/C1=CC2=CC(=O)C(C)(OC(=O)c3cnc4ccccc4n3)C(=O)C2=CN1CCCCO (stereo unspecified)	active: 12.6 µM
COc1ccc(C2=Nc3ccccc3NC(c3cccs3)=N2)cc1	inconclusive: 14.1 µM [inhibitor, partial curve]
COc1ccc(C(=O)Nc2ccc(S(=O)(=O)NC(C)=O)cc2)cc1[N+](=O)[O-]	inactive
COc1ccc(OC)c(N2C(=O)[C@@H]3C(c4ccccc4Cl)=NO[C@@H]3C2=O)c1	inconclusive: 12.6 µM [inhibitor, partial curve]
Cc1cccc(N2C(=O)CC(N(O)c3ccccc3)C2=O)c1 (stereo unspecified)	inconclusive: 5.62 µM [inhibitor, single point]
COc1ccc2oc(=O)c(/C(C)=N/NC(=O)c3ccncc3)cc2c1	inconclusive: 15.8 µM [inhibitor, partial curve]
CCCCCCCC(=O)NN=C1CCN(Cc2ccccc2)CC1	inactive
Cc1cc(-c2n[nH]c(=S)n2/N=C/C=C/c2ccccc2)n[nH]1	inconclusive: 10 µM [inhibitor, partial curve]
CCCCN1C(=O)/C(=C/C=C2\SCCN2C)SC1=S	active: 14.1 µM
CCOc1ccccc1/C=c1\sc2nc(-c3ccco3)nn2c1=O	active: 22.4 µM
CC(=O)c1cc(C(=O)Nc2ccccc2C(=O)O)oc1C	inactive
C=CCOC(=O)C1=C[C@@H](c2csc3ccccc23)C[C@@H](OCc2ccc(CO)cc2)O1	inconclusive: 2 µM [inhibitor, single point]
CCN(CC)C(=O)C1CCCN(Cc2ccc3c(c2)OCO3)C1 (stereo unspecified)	inactive
Cc1ccc(C(=O)/C=C/c2ccc(F)cc2)o1	inconclusive: 25.1 µM [inhibitor, partial curve]
c1ccc2[nH]c(SN3CCOCC3)nc2c1	inconclusive: 10 µM [inhibitor, partial curve]
Cc1ccc(C(=O)Nc2ccc(N3CCN(C(=O)c4ccco4)CC3)cc2)cc1	inconclusive: 1.26 µM [inhibitor, full curve]
Cc1cc(/C=N/NC(=O)c2ccccc2F)c(C)n1-c1ccccc1	inconclusive: 25.1 µM [inhibitor, partial curve]
O=C(CSc1nc(-c2ccc(F)cc2)cs1)NCCN1C(=O)CSC1=O	inactive
Cc1cccc(NC(=S)c2nc3ccccc3s2)c1	inconclusive: 6.31 µM [inhibitor, partial curve]
C/C(=N\NC(=O)c1ccco1)c1ccc(NC(=O)c2ccccc2)cc1	inconclusive: 3.55 µM [inhibitor, full curve, poor fit]
COc1cccc(CNc2cnc3ccccc3c2)c1O	inconclusive: 15.8 µM [inhibitor, partial curve]

SMILES	Potency
COc1ccccc1OCC(=O)Nc1ccc(O)cc1C(=O)O	inactive
Cc1ccc(Nc2ncccc2C(N)=O)cc1	inconclusive: 28.2 µM [inhibitor, single point]
CN(c1ccccc1)S(=O)(=O)c1cccc(C(=O)Nc2ccc3c(c2)CCC3)c1	inactive
Cc1ccc(N2C(=O)[C@@H]3[C@H](C2=O)C2CCCN2[C@@H]3C(=O)c2ccccc2)cc1 (stereo partly specified)	inconclusive: 25.1 µM [inhibitor, single point]
CCCOc1ccc(CNC(=O)CCCn2ncn3c(cc4sc(CC)cc43)c2=O)cc1	inactive
O=C1CCC(=O)N1c1ccc(NCc2ccccc2Cl)c([N+](=O)[O-])c1	inconclusive: 17.8 µM [inhibitor, partial curve]
O=C(CN1CCN(C(c2ccccc2)c2ccccc2)CC1)Nc1ccc(N2CCOCC2)cc1	inconclusive: 15.8 µM [inhibitor, partial curve]
O=C(Nc1ccc(Cl)c(Cl)c1)N(Cc1cccnc1)Cc1ccco1	inconclusive: 31.6 µM [inhibitor, partial curve]
Cc1ccc(-c2cc(C(=O)Nc3ccc(SC(F)F)cc3)no2)cc1F	inconclusive: 17.8 µM [inhibitor, partial curve, poor fit]
N/C(=N\OC(=O)/C=C/c1ccccc1)c1ccncc1	inactive
Cc1cccc(C)c1N1C(=O)[C@@H]2C(c3ccccc3Cl)=NO[C@@H]2C1=O	inactive
CCN(CC)c1ccc(NC(=O)c2cccn2-c2nnc(N3CCCCC3)s2)c(C)c1	inconclusive: 20 µM [inhibitor, single point]
Nc1c(-c2ccccc2Cl)cnn1-c1cccc([N+](=O)[O-])c1	inconclusive: 28.2 µM [inhibitor, partial curve]
CCCCc1ccc(NC(=S)Nc2ccc(Cl)c(S(=O)(=O)N(C)C)c2)cc1	inactive
O=C(O)Cc1sc(Nc2ccccc2)nc1-c1ccc(Cl)cc1	inconclusive: 12.6 µM [inhibitor, partial curve, poor fit]
COc1ccc(CCNC(=O)C(=O)NCc2ccc(Cl)cc2)cc1OC	inactive
COc1ccc(OCC(=O)Nc2ccc(-c3nc4cc(C)cc(C)c4o3)cc2)cc1	inconclusive: 1.58 µM [inhibitor, full curve]
COc1cc2c(C)nc3c(cnn3-c3ccccc3)c2cc1OC	inconclusive: 3.55 µM [inhibitor, full curve]
O=C1NN=C(CSc2n[nH]c(=S)s2)CS1	inactive
O=C(/C=C/c1ccc(Cl)cc1)N1CCN(c2ccc(Cl)cc2[N+](=O)[O-])CC1	active: 7.94 µM
Clc1cc(Br)ccc1OCCOCCOc1cccc2cccnc12	inconclusive: 31.6 µM [inhibitor, single point]
O=c1[nH]c2ccc(S(=O)(=O)N3CCCCC3)cc2o1	inactive
Cc1cccc(C(=O)Oc2coc(CSc3nnc(NC(=O)C4CC4)s3)cc2=O)c1	inconclusive: 17.8 µM [inhibitor, partial curve]
CCOc1ccc(Br)cc1S(=O)(=O)Nc1ccc(N2CCOCC2)cc1	inactive

SMILES	Potency
COc1ccc2c(c1OC)C(=O)N1c3ccccc3COC21 (stereo unspecified)	inconclusive: 25.1 µM [inhibitor, partial curve, poor fit]
COc1ccc2c(c1)cc(CNc1ccc(OC)c(OC)c1)c(=O)n2CC(=O)Nc1ccccc1C	inconclusive: 15.8 µM [inhibitor, partial curve, poor fit]
O=C(Nc1ccc(Nc2ccccc2)cc1)c1ccc(Br)o1	active: 8.91 µM
Cc1c(C#N)c(NC(=O)CCl)n(Cc2cccs2)c1C	inconclusive: 25.1 µM [inhibitor, single point]
CCc1cccc(NS(=O)(=O)c2c(C)[nH]c(=O)[nH]c2=O)c1	inconclusive: 31.6 µM [inhibitor, single point]
Cc1ccc(NC(=S)NCC2CCN(C(C)c3ccccc3)C2)cc1 (stereo unspecified)	inactive
CCC1(C)CC(CCN(Cc2ccco2)C(C)=O)(c2ccccc2)CCO1 (stereo unspecified)	inactive
N/C(Cc1cccs1)=N\OC(=O)COc1ccc(Br)cc1Cl	inconclusive: 11.2 µM [inhibitor, partial curve]
COc1ccc(CCNC(=O)CCc2c(C)nc3c4c(C)cc(C)nc4nn3c2C)cc1OC	inconclusive: 39.8 µM [inhibitor, single point]
Cc1ccc(C(=O)/C=C/c2ccccc2)o1	inconclusive: 31.6 µM [inhibitor, partial curve]
O=C(NCC1CCCO1)c1ccc2c(=O)n(CC3CCCO3)c(=S)[nH]c2c1 (stereo unspecified)	inactive
CC1CN(C(=O)N2CCC(C(=O)NCCCc3ccccc3)CC2)c2cc(Cl)ccc2O1 (stereo unspecified)	inconclusive: 39.8 µM [inhibitor, single point]
CC(C)(C)OC(=O)NCCC(=O)Oc1ccc2ccc(=O)oc2c1	inconclusive: 17.8 µM [inhibitor, partial curve]
C(=N\Nc1nc(-c2ccccc2)cs1)/c1ccncc1	active: 15.8 µM
O=C(c1ccc(Cl)cc1)[C@@H]1[C@@H]2C(=O)N(c3cccc4ccccc34)C(=O)[C@@H]2C2c3ccccc3C=NN21 (stereo partly specified)	inconclusive: 39.8 µM [inhibitor, single point]
O=C(N/N=C/c1cccc(O)c1)c1ccc(COc2cccc3cccnc23)cc1	inconclusive: 0.316 µM [inhibitor, full curve]
C=CCSc1nc2ccccc2n1C(=O)/C=C/c1cc(OC)c(OC)c(OC)c1	active: 25.1 µM
CCOc1ccc(NC(=O)Nc2ccc3c(c2)nc(C)n3C)cc1	inconclusive: 15.8 µM [inhibitor, partial curve]
CCc1ccc(CN(C)C(=O)CC2C(=O)NCCN2Cc2ccoc2)cc1 (stereo unspecified)	inconclusive: 11.2 µM [inhibitor, partial curve]
O=C1CC(Nc2ccc(N3CCOCC3)cc2)C(=O)N1Cc1ccccc1 (stereo unspecified)	inconclusive: 25.1 µM [inhibitor, partial curve]
N=C1/C(=C\c2ccc(OCc3ccccc3)cc2)C(=O)N=C2SC(N3CCCC3)=NN12	active: 3.98 µM
Nc1c(C(=O)Nc2ccccc2)sc2nc(-c3cccnc3)ccc12	inconclusive: 0.794 µM [inhibitor, full curve, poor fit]
CCOC(=O)N1CCN(CC(O)COC2CC(C)CCC2C(C)C)CC1 (stereo unspecified)	inconclusive: 35.5 µM [inhibitor, partial curve]
